In all, about 33,000 sequences were measured (“E-score (-0.5 to 0.5)”: median about -0.011, highest 2% from about 0.28 on). Some of the results follow.
Each sequence was assayed against T1, Gcr1 (UniProt P07261) (assay: PBM E-score (8-mer binding enrichment) (E-score (-0.5 to 0.5)); higher = stronger / more preferred TF binding; most listed sequences are background and not binding sites). Settings: protein concentration: 100 nM; construct: GST-full length.
T1 sequence: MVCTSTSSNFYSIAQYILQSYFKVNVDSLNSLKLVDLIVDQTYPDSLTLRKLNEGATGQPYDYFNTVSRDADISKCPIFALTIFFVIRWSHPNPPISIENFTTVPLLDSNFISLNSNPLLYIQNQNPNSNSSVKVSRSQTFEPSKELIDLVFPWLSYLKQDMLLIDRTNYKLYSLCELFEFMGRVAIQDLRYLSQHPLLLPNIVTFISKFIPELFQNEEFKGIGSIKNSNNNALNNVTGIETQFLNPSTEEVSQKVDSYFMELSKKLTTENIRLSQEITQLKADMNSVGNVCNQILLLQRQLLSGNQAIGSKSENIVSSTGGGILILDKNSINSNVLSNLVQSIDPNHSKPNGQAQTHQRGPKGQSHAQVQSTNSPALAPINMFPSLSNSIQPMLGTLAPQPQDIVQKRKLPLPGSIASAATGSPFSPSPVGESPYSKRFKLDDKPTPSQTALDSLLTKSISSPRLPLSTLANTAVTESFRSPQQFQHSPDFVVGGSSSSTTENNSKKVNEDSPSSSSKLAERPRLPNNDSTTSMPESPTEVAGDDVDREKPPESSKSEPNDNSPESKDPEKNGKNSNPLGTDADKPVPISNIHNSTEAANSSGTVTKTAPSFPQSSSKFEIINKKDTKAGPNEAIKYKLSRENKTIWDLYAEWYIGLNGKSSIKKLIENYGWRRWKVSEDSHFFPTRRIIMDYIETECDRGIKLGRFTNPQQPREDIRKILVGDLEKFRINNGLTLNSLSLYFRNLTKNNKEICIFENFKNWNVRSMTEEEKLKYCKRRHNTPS
Procedure: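 Universal 'all 10-mer' protein binding microarrays (Agilent AMADID 015681) probed with GST-tagged S. cerevisiae TFs (full-length or DBD) made by in vitro transcription/translation (PURExpress), about 100-200 nM. Bound TF was detected with fluorescent anti-GST. Each ungapped 8-mer (which stands for itself and its reverse complement) is scored by the PBM enrichment score (E-score), a modified Wilcoxon-Mann-Whitney statistic from -0.5 to +0.5, computed with the Universal PBM Analysis Suite. Scale: above 0.35 generally sequence-specific binding.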

Sequence	PBM E-score
ACCATGCT	-0.0851
CCGTCGGA	-0.156
GGCTGCTA	0.318
GACCAATA	-0.04
AGTGCCAT	-0.17
CCGCCCTC	0.034
GCACTAGC	-0.0591
AATAAGAG	0.0844
CCCAAGGG	-0.186
GTGACGAA	0.0386
ACCGGGAC	0.0546
ATAGTTGG	0.101
AGTCCGAA	0.0746
CACCATTC	-0.0376
ACCAATGA	-0.0158
AATTTTAT	0.131
AGGAGTAC	-0.194
AGTAGTCG	0.00584
ACAGGTTA	0.0706
CCCAACCA	0.0323
ACGGGAGA	-0.0683
ATTCAAAC	-0.0211
GCTGTGAA	-0.152
CCTTGCAA	-0.178
TGCGTAAA	0.0632

Sequence	PBM E-score
ATGTCCAA	0.0476
TATGCTCA	-0.00311
GAAAACCC	-0.205
CGTTCTTC	-0.115
GCGAAGAC	-0.133
AGCCCCAG	0.0473
AATGAGCA	0.0307
AATTCATC	-0.046
GTTCACCA	-0.0328
CAGTAAGC	0.0313
CGCTAAAC	-0.118
ATGCCCAG	0.0447
CCGTAGAG	-0.0373
GCCGAAGC	0.00576
AGGTGCCG	0.22
GATATTGC	0.00295
CCCCACCG	-0.083
GATAATAA	-0.0812
CGGAAGTA	-0.0129
CGGGCATC	0.282
AGCTATCG	0.00357
CTTAACGA	0.0653
CGTGTTGA	-0.125
CGTTGCTA	0.0895
AGTTCGTG	0.0517

Sequence	PBM E-score
CCAGCCAA	-0.11
AGCTCACT	-0.143
ATCTACGG	-0.00111
CGGATACG	0.0225
ACAAAGAG	-0.078
CAGTCGGC	-0.0129
GTCAGGCA	0.0185
ATTTCATA	0.137
ACTACATG	0.241
CCTCGTAG	-0.148
GTACTTGA	-0.209
CGCGGCAA	-0.129
ACCTGCCG	-0.14
ACCTTCTC	-0.155
ACTTGGAC	-0.152
GGGGGGAC	-0.187
CCGCTGAG	-0.0244
AAAAAATC	0.211
CAGTGATG	0.0641
GGATCCCA	0.391
TAGACCAA	-0.0556
GCACCTAC	0.0998
CAGTCAAG	0.00273
AGGTTAGC	0.0806
AGAACACA	-0.154

Sequence	PBM E-score
CGAACATA	-0.0511
CTATGTGA	0.0291
ATTGCGCC	-0.137
AGCGGCTA	0.0167
AGACATAG	-0.0478
TCAATGAA	-0.00056
CGTTCGAC	-0.229
ACCGACTC	-0.0867
ATGACCCC	-0.0726
AGAAATGA	-0.00385
TACCAGAA	0.34
CCCACTAA	0.241
ACACATCT	0.0546
AGCTTCTA	0.297
AATAAGTG	0.0331
AAGGTCGG	-0.241
CCAGTGGC	-0.0248
TAAAATGA	0.19
AAGTAGAG	-0.0335
GGGCTGAC	-0.363
ACGGGTAC	-0.0129
CTATTACC	0.112
CTCAACGA	-0.151
ATGACGCA	-0.051
ATGGGAGG	0.115

Sequence	PBM E-score
GCCCGGCA	-0.0489
ACGTACAA	-0.168
CTTTAGGC	-0.137
CCCTAGCC	0.0608
CAGAGTCC	0.162
GAATCCTC	0.239
CCCAGCTC	0.012
CGTGGCAC	0.0227
TGCATGCA	-0.177
AGCTCGTA	-0.245
ACTACTAC	-0.0628
ATCGTCTC	0.0401
AAGGTTAC	-0.0179
AAATGGCT	0.0656
ATTCAATG	0.103
CGGGTGTA	0.0518
TACAGCGA	-0.0435
GCTTTCCC	-0.0976
CTTGTACC	0.101
ACCACAAA	0.236
CCTTAGAC	0.0688
AATATAAT	0.151
CCGACGAC	-0.13
AAGGTGAT	-0.0725
CGTGCCAG	-0.191

Sequence	PBM E-score
AGGCAGCA	0.0795
CTCCATTA	0.0245
AGCCTACT	-0.108
CCTACGCA	-0.223
TAACTTGA	-0.156
GCCATCAA	-0.22
CGTCTTCC	0.204
GTTGCCGA	0.225
AAGCGTCG	0.0188
GACCGAGA	-0.0306
AACCTCGC	-0.0987
CCCTCCAG	-0.0408
ATCGTCCC	0.0583
CCCTAAGC	-0.25
CAGGGTGA	-0.0254
CGTGCGCA	-0.0952
CCAACATA	0.0709
CAAGTCTG	-0.0376
CATGACAC	-0.0867
CGATGCTA	0.266
ATCTGAAC	0.127
ACTTCTGG	0.114
CAGCATTC	-0.239
AGTCGCTC	-0.131
GCCTGCAC	-0.0935

Sequence	PBM E-score
ACGCGGGA	0.0133
ACCAAATA	0.0899
CGCCACGA	-0.105
ACTTTGTG	-0.132
GTTACATA	-0.0972
AACGGATG	-0.0376
CGTCTACA	0.0544
CTCTCATA	-0.128
GTTCGGTA	-0.0151
TGGCCGAA	-0.084
CAGGTAGC	0.163
CCTCATCC	-0.0992
ACACCGTA	-0.113
ACTTCGCA	0.229
CCGTAGCG	0.0291
ATCATCAC	0.162
CTGGGGAA	0.0446
AGAACCTC	0.144
TAATTGTA	0.164
AATATTGA	0.176
AAGCATTA	-0.0436
CAATGCGC	-0.116

— the supplement of paper PMC3334620
